# The other results are listed elsewhere or left out. The full chains were built here from the parent and the listed change. Values near 0.05 are background.
# B1: TEV protease; numbered along this chain (parent)
# chain: MGESLFKGPRDYNPISSSICHLTNESDGHTTSLYGIGFGPFIITNKHLFRRNNGTLVVQSLHGVFKVKDTTTLQQHLVDGRDMIIIRMPKDFPPFPQKLKFREPQREERICLVTTNFQTKSMSSMVSDTSCTFPSGDGIFWKHWIQTKDGQCGSPLVSTRDGFIVGIHSASNFTNTNNYFTSVPKNFMELLTNQEAQQWVSGWRLNADSVLWGGHKVFMVKPEEPFQPVKEATQL
# Variants of: B1
# Assay: raw area under fraction-flipped curve 0-4 h after induction (AUC4h, not background-subtracted), DNA-recorder readout of cleavage of the substrate (dimensionless); higher = more cleavage of the substrate by the protease variant
# Conditions: temperature: 34 °C; time window: 0-4 h after rhamnose induction
# Description: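 In vivo DNA recorder in E. coli TOP10(DE3) ΔrhaA at 34 °C. Each TEVp single-site mutant (parent TEVp 0) is paired with a single-site variant of the 7-mer TEVs (canonical ENLYFQ|S). The substrate sits between flexible linkers in a Bxb1-sfGFP-TEVs-SsrA fusion, so cleavage stabilises Bxb1 and speeds flipping of a recombination array, read by NGS. The value is the raw area under the fraction-flipped curve over 0-4 h after rhamnose induction (AUC4h), with ≥20 reads per time point. It is not background-subtracted; inactive controls average about 0.047.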
# 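Also: Bxb1 expression induced with 0.2% (w/v) L-rhamnose at OD600 near 0.5, cultures sampled hourly, flipped fraction per protease–substrate barcode pair counted by paired-end Illumina sequencing.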
Variant,area with substrate ENLDFQS,area with substrate ENLEFQS,area with substrate ENLFFQS,area with substrate ENLHFQS,area with substrate ENLKFQS,area with substrate ENLLFQS,area with substrate ENLNFQS,area with substrate ENLPFQS,area with substrate ENLQFQS,area with substrate ENLSFQS,area with substrate ENLWFQS,area with substrate ENLIFQS,area with substrate ENLMFQS,area with substrate ENLRFQS,area with substrate ENLVFQS,area with substrate ENLGFQS
MGETLFKGPRDYNPISSSICHLTNESDGHTTSLYGIGFGPFIITNKHLFRRNNGTLVVQSLHGVFKVKDTTTLQQHLVDGRDMIIIRMPKDFPPFPQKLKFREPQREERICLVTTNFQTKSMSSMVSDTSCTFPSGDGIFWKHWIQTKDGQCGSPLVSTRDGFIVGIHSASNFTNTNNYFTSVPKNFMELLTNQEAQQWVSGWRLNADSVLWGGHKVFMVKPEEPFQPVKEATQL [S4T],0.0799,0.0714,0.112,0.0798,0.0364,0.0796,0.0646,0.0465,0.0668,0.0492,0.0732,,,,,
MGESLQKGPRDYNPISSSICHLTNESDGHTTSLYGIGFGPFIITNKHLFRRNNGTLVVQSLHGVFKVKDTTTLQQHLVDGRDMIIIRMPKDFPPFPQKLKFREPQREERICLVTTNFQTKSMSSMVSDTSCTFPSGDGIFWKHWIQTKDGQCGSPLVSTRDGFIVGIHSASNFTNTNNYFTSVPKNFMELLTNQEAQQWVSGWRLNADSVLWGGHKVFMVKPEEPFQPVKEATQL [F6Q],0.102,0.0924,0.088,0.0504,0.0688,0.0683,0.0702,0.0644,,0.0589,,0.0979,0.085,0.0715,0.0683,
MGESLFKGPRDYNPISSSICRLTNESDGHTTSLYGIGFGPFIITNKHLFRRNNGTLVVQSLHGVFKVKDTTTLQQHLVDGRDMIIIRMPKDFPPFPQKLKFREPQREERICLVTTNFQTKSMSSMVSDTSCTFPSGDGIFWKHWIQTKDGQCGSPLVSTRDGFIVGIHSASNFTNTNNYFTSVPKNFMELLTNQEAQQWVSGWRLNADSVLWGGHKVFMVKPEEPFQPVKEATQL [H21R],0.0588,0.0477,0.0805,0.065,0.0728,,0.0626,0.0528,0.0986,0.075,,0.0839,0.077,0.0688,0.097,
MGESLFKGPRDYNPISSSICHLTNESDGHTTSLYGIGFGPFIITNKHLFRRNNGTLVVQSLWGVFKVKDTTTLQQHLVDGRDMIIIRMPKDFPPFPQKLKFREPQREERICLVTTNFQTKSMSSMVSDTSCTFPSGDGIFWKHWIQTKDGQCGSPLVSTRDGFIVGIHSASNFTNTNNYFTSVPKNFMELLTNQEAQQWVSGWRLNADSVLWGGHKVFMVKPEEPFQPVKEATQL [H62W],0.0749,0.0739,0.0859,0.0606,0.081,,0.0837,,0.0645,0.0726,0.0624,,,0.0505,0.0816,
MGESLFKGPRDYNPISSSICHLTNESDGHTTSLYGIGFGPFIITNKHLFRRNNGTLVVFSLHGVFKVKDTTTLQQHLVDGRDMIIIRMPKDFPPFPQKLKFREPQREERICLVTTNFQTKSMSSMVSDTSCTFPSGDGIFWKHWIQTKDGQCGSPLVSTRDGFIVGIHSASNFTNTNNYFTSVPKNFMELLTNQEAQQWVSGWRLNADSVLWGGHKVFMVKPEEPFQPVKEATQL [Q59F],0.0597,,0.0826,0.0609,0.0727,,0.0914,,,,0.0492,0.0781,,,,
MGESLFKGPRDYNPISSSICHLTNESDGHTTSLYGIGFGPFIITNKHLFRRNNGTLVFQSLHGVFKVKDTTTLQQHLVDGRDMIIIRMPKDFPPFPQKLKFREPQREERICLVTTNFQTKSMSSMVSDTSCTFPSGDGIFWKHWIQTKDGQCGSPLVSTRDGFIVGIHSASNFTNTNNYFTSVPKNFMELLTNQEAQQWVSGWRLNADSVLWGGHKVFMVKPEEPFQPVKEATQL [V58F],0.0539,0.0469,,,0.0788,,0.0552,,0.0745,0.0803,,,,,,0.0407
MGESLFKGPRDYNPISSSICHLTNESDGVTTSLYGIGFGPFIITNKHLFRRNNGTLVVQSLHGVFKVKDTTTLQQHLVDGRDMIIIRMPKDFPPFPQKLKFREPQREERICLVTTNFQTKSMSSMVSDTSCTFPSGDGIFWKHWIQTKDGQCGSPLVSTRDGFIVGIHSASNFTNTNNYFTSVPKNFMELLTNQEAQQWVSGWRLNADSVLWGGHKVFMVKPEEPFQPVKEATQL [H29V],0.0593,,0.0896,0.0758,0.0736,0.0654,,0.0549,,0.0655,,,,0.0719,0.0849,
MGESLFKGPRDYNPISSSICHLTNESDGSTTSLYGIGFGPFIITNKHLFRRNNGTLVVQSLHGVFKVKDTTTLQQHLVDGRDMIIIRMPKDFPPFPQKLKFREPQREERICLVTTNFQTKSMSSMVSDTSCTFPSGDGIFWKHWIQTKDGQCGSPLVSTRDGFIVGIHSASNFTNTNNYFTSVPKNFMELLTNQEAQQWVSGWRLNADSVLWGGHKVFMVKPEEPFQPVKEATQL [H29S],0.0748,0.0662,0.0897,0.0736,0.078,0.0704,,0.0509,0.0721,0.0571,0.0696,0.0831,,0.0775,,0.0693
MGESLFKGPRDYNPISSSICHLTNESDGHTTSLYGIGFGPFIITNVHLFRRNNGTLVVQSLHGVFKVKDTTTLQQHLVDGRDMIIIRMPKDFPPFPQKLKFREPQREERICLVTTNFQTKSMSSMVSDTSCTFPSGDGIFWKHWIQTKDGQCGSPLVSTRDGFIVGIHSASNFTNTNNYFTSVPKNFMELLTNQEAQQWVSGWRLNADSVLWGGHKVFMVKPEEPFQPVKEATQL [K46V],0.0683,,0.0665,0.0628,0.0546,0.075,0.0622,0.05,,0.0628,,,,0.0606,0.0635,0.051
